The source of these data is patent publication US20260234290A1, “Antibodies to Stat3 Decoy Oligonucleotide” (The Regents of the University of California, priority 2023, published 2026).

As a reminder, the koff is the first-order rate constant of dissociation.

The subject of the assay is CS3D. Description: BLI koff of purified Fabs from CS3D biopanning. In kind it is binding. Conditions: measured at 2 μM Fab. How it is done:
First, standard biopanning (FIG. 1) was performed with Ag immobilized magnetic beads. A total of six rounds were performed with increasing stringency of washes and decreasing amounts of Ag per round. Assuming strong enrichment occurred continuously throughout the campaign, 95 colonies were randomly picked each round 4-6 (285 clones total) for candidate hit screening.
In efforts to identify improved binders, BIAS was performed with identical clones picked previously that were randomly sequenced. […] Therefore, we hypothesized that strong growth/display propensity biases were a dominant factor during the campaign, leading primarily to the identification of low-affinity binders.
Fluorescent activated sorting was applied to round 4 as both the population percentage and the normalized MFI of the shoulder population are the highest (FIG. 7). The shoulder population (top ~4%) was sorted along with the majority population (bottom ~96%) and both populations were used to infect TG1 (E. coli) cells. […]
All buffers were filter sterilized with […] filters prior to preparing samples. […] Kinetic constants of Fabs were determined by Octet RED384 system with continuous shaking at 1000 rpm in RT. […] Data were analyzed using 1:1 interaction model on the ForteBio data analysis software 12.0. […]

B1: 4E4: anti-CS3D Fab from standard biopanning; VH SEQ ID NO: 1, VL SEQ ID NO: 2 (antibody, V domains shown)
VH: [sequence of about 100 residues omitted]GLRYSSGWGQGTMVTVSS
VL: QPVLTQPPSVSKGLRQTATLTCSGNSNNVGNAGAVWLQQHQGHPPKLLSYRNNNRPSGISERISASRSGNTASLTISGLQPEDEADYYCSAWDSSLRVQVFGGGTKLTVL
As to B1, the koff turned out to be 0.111 s⁻¹.
